Hit rate of the full screen: of about 420,000 compounds, about 50,000 (12%) were called active. Roughly 26% stayed inconclusive and do not appear here. The call rests on the fitted dose curve; in most records, active means well fitted inhibition curve with a large enough effect; inconclusive means small, poorly fitted or top-dose-only effect; inactive means flat fitted curve, though single readings scatter. Some compounds were tested as several samples or in several runs, with calls that do not always agree. Some entries of the source have several records that differ or are many. Only these are listed. There may be further records. The records of an entry are repeats (runs, samples, wells, individuals or studies).
Test: qHTS for Inhibitors of human tyrosyl-DNA phosphodiesterase 1 (TDP1): qHTS in cells in presence of CPT; further: nearly all actives have a fitted effect of over 55% in size
Conditions: chicken DT40 Tdp1-/-;hTDP1 cells + 20 nM CPT, ATP luminescence, 48 h; series mostly up to 46.2 µM
On the % scale 0 is the no-effect control and ±100 the full control effect; potency means the concentration at half of the fitted maximal effect.

Row | Compound | Potency
1 | COc1c(C)c2c(c(O)c1C/C=C(\C)CCC(=O)O)C(=O)OC2 | active: 32.6, 580, 299, 114 nM and inactive [separate samples]

Reference: PubChem BioAssay AID686979 (National Center for Advancing Translational Sciences (NCATS), 2013)
